# The campaign covered roughly 310,000 compounds. About 2,200 (0.71%) showed an effect of 50% or more. Effects have a minus sign here. The list shows a part of the results.
# Molecular target: human ether-à-go-go-related gene (hERG) potassium channel (human, UniProt Q12809)
# Experiment: primary screen, population patch clamp on CHO cells stably expressing hERG
# Chain of human ether-à-go-go-related gene (hERG) potassium channel (Q12809 whole entry, looked up): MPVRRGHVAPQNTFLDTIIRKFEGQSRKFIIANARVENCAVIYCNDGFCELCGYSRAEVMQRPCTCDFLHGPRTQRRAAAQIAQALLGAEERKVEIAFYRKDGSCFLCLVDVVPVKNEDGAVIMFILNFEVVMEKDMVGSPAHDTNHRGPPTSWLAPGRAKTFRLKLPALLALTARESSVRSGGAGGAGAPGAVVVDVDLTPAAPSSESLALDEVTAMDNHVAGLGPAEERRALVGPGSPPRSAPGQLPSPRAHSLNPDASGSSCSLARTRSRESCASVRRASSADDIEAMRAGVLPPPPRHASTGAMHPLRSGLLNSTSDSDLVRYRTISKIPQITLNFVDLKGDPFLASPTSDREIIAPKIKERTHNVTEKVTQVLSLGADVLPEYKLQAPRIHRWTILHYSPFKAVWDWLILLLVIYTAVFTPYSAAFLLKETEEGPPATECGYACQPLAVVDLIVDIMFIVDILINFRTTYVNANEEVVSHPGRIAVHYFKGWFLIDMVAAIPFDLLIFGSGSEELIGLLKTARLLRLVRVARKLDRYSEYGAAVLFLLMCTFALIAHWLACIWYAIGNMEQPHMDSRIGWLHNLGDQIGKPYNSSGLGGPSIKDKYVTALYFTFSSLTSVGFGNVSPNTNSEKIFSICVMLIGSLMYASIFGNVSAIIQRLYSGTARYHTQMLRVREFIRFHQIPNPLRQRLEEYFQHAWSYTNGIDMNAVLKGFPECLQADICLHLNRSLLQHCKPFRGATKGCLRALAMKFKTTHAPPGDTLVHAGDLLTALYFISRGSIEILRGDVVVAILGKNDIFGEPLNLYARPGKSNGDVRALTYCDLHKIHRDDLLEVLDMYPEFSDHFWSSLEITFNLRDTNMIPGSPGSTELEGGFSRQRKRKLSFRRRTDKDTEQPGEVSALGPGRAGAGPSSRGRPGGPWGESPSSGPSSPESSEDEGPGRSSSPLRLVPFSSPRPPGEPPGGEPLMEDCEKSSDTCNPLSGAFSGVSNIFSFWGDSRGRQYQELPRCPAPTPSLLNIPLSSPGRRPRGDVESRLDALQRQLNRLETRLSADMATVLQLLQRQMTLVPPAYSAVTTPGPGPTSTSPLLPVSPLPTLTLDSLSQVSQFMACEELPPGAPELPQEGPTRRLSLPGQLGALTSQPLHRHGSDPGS
row,Compound,"hERG current change (%, negative = inhibition) at 1uM"
1,COc1ccc(CCc2nc(-c3cccs3)no2)cc1,5.28%
2,Cc1noc(NS(=O)(=O)c2ccc(N/C=C\C(=O)c3ccc(Br)cc3)cc2)c1C,12.5%
3,Cc1ccc(SCc2cc(-c3ccc(Cl)cc3)on2)cc1,10.4%
4,O=C(CSc1ncccn1)N/N=C/c1ccccc1[N+](=O)[O-],13.8%
5,COc1ccc(C(=O)c2ccccc2)cc1Br,10.7%
6,O=C(COC(=O)c1ccccn1)Nc1nccs1,13.1%
7,O=[N+]([O-])c1ccc2c(c1)ncn2-c1ccccc1,1.64%
8,O=S(=O)(c1cccs1)N1CCC2(CC1)OCCN2S(=O)(=O)c1ccccc1,-3.94%
9,CC(C)(C)c1cc(CCC(=O)Nc2ccncc2)cc(C(C)(C)C)c1O,10%
10,CCC(C)NC(=O)CN1C(=O)NC2(CCc3ccccc3C2)C1=O (stereo not drawn),13.2%
11,CCC(=O)N(CCc1ccccc1)Cc1cc2cc(C)ccc2[nH]c1=O,0.576%
12,O=C1NC2=C(C(=O)CCC2)C(c2ccccc2Cl)N1 (stereo not drawn),17.4%
13,COCCn1ccc2c(OCC(=O)Nc3ccccc3OC)cccc2c1=O,8.49%
14,O=C(CN1CCN(C(=O)c2cccs2)CC1)Nc1ccc(Br)cc1,-68.2%
15,CCCCCC(=O)Nc1nc(C)c(-c2csc(Nc3cc(OC)ccc3OC)n2)s1,9.1%
16,O=C(C[n+]1ccc(Cc2ccccc2)cc1)Nc1ccccc1.[Cl-],13.2%
17,COc1ccc(N(C)S(=O)(=O)c2cccc(C(=O)Nc3cc(OC)ccc3OC)c2)cc1,12.6%
18,S=c1[nH]nc(COc2ccccc2)n1-c1ccccc1,7.33%
19,CCOC(=O)C1=C(C)NC(=O)CC1c1cc2c(cc1Br)OCO2 (stereo not drawn),4.31%
20,COc1ccc(Nc2oc(COc3ccc(OC)cc3)nc2C#N)cc1,8.9%
21,O=C(N/N=C/c1coc2ccccc2c1=O)c1cc(Br)ccc1O,16.2%
22,CC1(C)Cc2ccccc2-c2nnc(-c3ccc(O)cc3)n21,16.9%
23,O=C(CCS(=O)(=O)c1ccccc1)N1CCN(c2ccc(F)cc2)CC1,-1.29%

row,Compound,"hERG current change (%, negative = inhibition) at 1uM"
1,Cc1nnc(NC(=O)C2CCCN2C(=O)Nc2ccccc2)s1 (stereo not drawn),15.2%
2,Cc1[nH]n(-c2ccccc2)c(=O)c1N=O,12.1%
3,Cc1[nH]nc2c1C(c1c[nH]c3ccccc13)C(C#N)=C(N)O2 (stereo not drawn),4.49%
4,O=C(NC1CC2CCCC(C1)N2Cc1ccccc1)C1CCCCC1 (stereo not drawn),3.78%
5,CCCCOc1ncnc2c1[nH]c1ccc(F)cc12,11.7%
6,O=C(NCCCn1ccnc1)c1cc(C(=O)C2CCCCC2)c[nH]1,11.8%
7,CC1CC(=O)Nc2ccccc2N1C(=O)Nc1ccccc1 (stereo not drawn),19.9%
8,COc1cccc(/C=N/NC(=O)c2ccc([N+](=O)[O-])cc2Cl)c1O,15.1%
9,COc1ccc(O)c(C(=O)c2cnc3onc(C)c3c2)c1,13.8%
10,Cc1nnc(SCc2cn3ccsc3n2)n(N)c1=O,0.818%
11,COc1ccc(-n2c(SCC(=O)NCc3ccco3)nnc2-c2c[nH]c3ccccc23)cc1,10.3%
12,COc1ccc(NC(=O)CN(C)C(=O)/C=C/c2ccc(OCc3ccccc3)cc2)cc1,11.1%
13,CN1C(=O)C(=Cc2ccc(OCCN(C)c3ccccn3)cc2)C(=O)N(C)C1=O,8.15%
14,CCOc1ccc(NC(=O)N2CCCC2C(=O)NCC2CCCO2)cc1 (stereo not drawn),16.9%
15,COc1ccc(NC(=O)c2cc(C(=O)Nc3ccc(OC)cc3OC)cc([N+](=O)[O-])c2)c(OC)c1,15.5%
16,O=c1[nH]c(=S)[nH]c2scc(-c3ccc(Br)cc3)c12,19.8%
17,CCCSc1nnc(CN2CCOCC2)n1C,14.4%
18,COc1ccc(N2CCN(C(=O)CN(C)S(=O)(=O)c3ccc4c(c3)c(=O)n(C)c(=O)n4C)CC2)cc1,9.96%
19,O=C1c2ccccc2C(=O)c2c1cccc2N1CCN(CCO)CC1,-64.7%
20,COc1ccc(NC(=O)CCS(=O)(=O)c2cccc3nonc23)c(OC)c1,10.8%
21,CN1CCN(S(=O)(=O)c2cccc(C(=O)N(C)Cc3cccs3)c2)CC1,7.17%
22,CCC(C)NC(=O)Nc1ccc(F)c(Cl)c1 (stereo not drawn),17.8%

# Source: publication PMC4336329 (PLoS ONE, 2015)
